“And” between values parts separate entries of the source, which are not always exact repeats. Identical values can stand only once. Out of some 150,000 compounds screened, about 540 (0.36%) showed an effect of 50% or more. Some of the results follow.
Test system: Plasmodium falciparum
Assay: Primary screen in NF54 nanoGlo assay, in single point, at 2uM, 72h; a lower Z score goes with more inhibition
Format: functional, Erythrocyte
Details: timepoint 72 hour

Structure (SMILES): O=C(NCCc1cccnc1)[C@H]1CCc2nc(N3CCCC3)ncc2C1
- % Inhibition: -5%
- Z score: 0.89

Structure (SMILES): CC1CCC(c2ccccc2)N(c2ccc(C#N)nn2)C1 (stereo unspecified)
- % Inhibition: 6%
- Z score: -0.72

Structure (SMILES): O=C(NC(Cc1ccccc1)c1cccs1)C1CCCO1 (stereo unspecified)
- % Inhibition: -18%
- Z score: 2.33

Structure (SMILES): Cc1cc(NC(=O)CN2CCC(COc3ccccn3)CC2)n(C)n1
- % Inhibition: 5%
- Z score: -0.69

Structure (SMILES): Cc1cccnc1NC(=O)c1ccc(CN2CCNC(=O)[C@@H]2CCO)cc1
- % Inhibition: -4%
- Z score: 0.49

Structure (SMILES): Cn1nccc1C(=O)Nc1nnc(-c2ccco2)o1
- % Inhibition: -7%
- Z score: 1.23

Structure (SMILES): O=C(c1c[nH]c(=O)c(Cl)c1)N1CC[C@@]2(CCCN(CCC3CCCCC3)C2)C1
- % Inhibition: 4%
- Z score: -0.61

Structure (SMILES): COC(=O)c1ccc(-c2nc(CN3CCn4c(C)ccc4[C@@H]3C)c(C)o2)cc1
- % Inhibition: -3%
- Z score: 0.48

Structure (SMILES): Cc1ncsc1CCn1ccc(C#N)cc1=O
- % Inhibition: -10%
- Z score: 0.98

Structure (SMILES): CCc1nnsc1C(=O)Nc1nc2ccc(C)cc2s1
- % Inhibition: -15%
- Z score: 2.28

Structure (SMILES): c1ccc(-c2c[nH]c3scc[n+]23)cc1
- % Inhibition: -8%
- Z score: 1.02

Structure (SMILES): Cc1cc(C2CCC2)nc(NC[C@H]2COCCO2)n1
- % Inhibition: -10%
- Z score: 1.59

Structure (SMILES): CC(C)N1C2CCC1CN(C(=O)NCc1ccccc1)CC2 (stereo unspecified)
- % Inhibition: 29%
- Z score: -3.96

Structure (SMILES): COc1cc(C)cc(-c2cc(C(=O)O)cc(S(=O)(=O)N3CCOCC3)c2)c1OC
- % Inhibition: -2%
- Z score: 0.31

Structure (SMILES): Cc1ccc([C@H](C)NCCN2C(=O)NC(C)(C)C2=O)o1
- % Inhibition: -7%
- Z score: 0.7

Structure (SMILES): CCOC(=O)c1nsc2c(OCC)ncnc12
- % Inhibition: -2%
- Z score: 0.27

Structure (SMILES): Cc1n[nH]c(C)c1CC(=O)NCCc1nc(C2CCCCC2)cs1
- % Inhibition: 4%
- Z score: -0.53

Structure (SMILES): OCC#Cc1csc(CN(Cc2cccnc2)C2CCCCCC2)c1
- % Inhibition: -12%
- Z score: 1.65

Structure (SMILES): CC[C@H](NS(C)(=O)=O)c1ccc(Cl)cc1
- % Inhibition: 6%
- Z score: -1.11

Structure (SMILES): COCc1noc(CN2CC[C@H](c3nccc(C(F)(F)F)n3)C2)n1
- % Inhibition: -2%
- Z score: 0.33

Structure (SMILES): O=S1(=O)CC(O)C(Nc2ccc3c(c2)OCCO3)C1 (stereo unspecified)
- % Inhibition: -8%
- Z score: 1.02

Structure (SMILES): CCc1c([C@H](C)NCc2ncnn2C)oc2ccccc12
- % Inhibition: -3%
- Z score: 0.56

Structure (SMILES): Cc1cc(C)nc(/N=C(/NC(=O)Nc2ccc(Cl)c(Cl)c2)N2CCC(Cc3ccccc3)CC2)n1
- % Inhibition: 5%
- Z score: -0.48

Structure (SMILES): COc1ccc(-c2c(C(=O)N3CCOCC3)nn3c(C)cc(C)nc23)cc1S(=O)(=O)N1CCCCC1
- % Inhibition: -16%
- Z score: 2.66

Structure (SMILES): CC(C)CC(=O)N[C@@H]1CCC[C@@H](C(=O)N2CCN(C)CC2)CC(=O)N(C)C1
- % Inhibition: 1%
- Z score: -0.18

Structure (SMILES): CO[C@H]1C[C@H]2CN(C(=O)c3cncn3C)[C@@H](Cc3ccccc3)C(=O)N2C1
- % Inhibition: -11%
- Z score: 1.75

Structure (SMILES): CC(NC(=O)C(OC(C)(C)C)c1ccccc1)c1cnn(C)c1 (stereo unspecified)
- % Inhibition: -8%
- Z score: 0.91

Structure (SMILES): O=C(NCC1CCN(c2cnsn2)CC1)[C@H]1CC12CC2
- % Inhibition: -1%
- Z score: 0.17

Structure (SMILES): O=S(=O)(CCn1ccnc1-c1ccc(-c2cc[nH]n2)s1)N1CCCC1
- % Inhibition: 0%
- Z score: 0.03

Structure (SMILES): CN(C)c1cc([C@H]2C[C@@H](O)C2)nc(N)n1
- % Inhibition: -10%
- Z score: 0.97

Structure (SMILES): CCc1nnc(CN2CCCCCC2CC(O)c2cccs2)o1 (stereo unspecified)
- % Inhibition: -6%
- Z score: 0.59

Structure (SMILES): COc1cccc(C2C(NC(=O)c3cscn3)CCN2C2CC2)c1 (stereo unspecified)
- % Inhibition: -15%
- Z score: 1.71

Structure (SMILES): CC(C)(C)[C@@H](C#N)NC(=O)c1ccc(-n2ccnn2)cc1
- % Inhibition: -10%
- Z score: 1.41

Structure (SMILES): COc1ccc(Cc2nn(-c3ccccc3)c(N)c2-c2ccc(OC)c(OC)c2)cc1OC
- % Inhibition: 5%
- Z score: -1.04

Structure (SMILES): COc1ccc(-c2cn([C@H]3CCN(C)C[C@H]3Cc3ccccc3)nn2)cn1
- % Inhibition: 11%
- Z score: -1.45

Structure (SMILES): COc1ccc(Cl)cc1C(C)NCC1CC(C)=NO1 (stereo unspecified)
- % Inhibition: -3%
- Z score: 0.56

Structure (SMILES): O=C(Nc1ccc(Br)cc1)c1nc(-c2cn(-c3ccccc3)nn2)no1
- % Inhibition: -12%
- Z score: 2.43

Structure (SMILES): O=c1c2ccccc2c(-c2nc(-c3ccc4c(c3)OCO4)no2)nn1-c1ccccc1
- % Inhibition: 4%
- Z score: -0.45

Structure (SMILES): C[C@H](NS(=O)(=O)c1ccccc1C(F)(F)F)C(=O)NCc1ccccc1CN1CCOCC1
- % Inhibition: 1%
- Z score: -0.06

Structure (SMILES): NC(=O)c1ccc(NCc2csc(-c3ccccn3)n2)cc1F
- % Inhibition: -13%
- Z score: 2.52

Structure (SMILES): CN(CCNC(=O)C1CC=CC1)C(=O)C1CC=CC1
- % Inhibition: -5%
- Z score: 0.93

Structure (SMILES): Cc1cccc(C)c1NCC(=O)N1CCCN(C(=O)C(C)(C)C)CC1
- % Inhibition: 3%
- Z score: -0.3

Structure (SMILES): NC(=O)Nc1cccc(NC(=O)CC2=CCCCC2)c1
- % Inhibition: -9%
- Z score: 1.87

Structure (SMILES): CCc1cc(N2CCC(C(=O)O)(n3cnc4ccccc43)CC2)ncn1
- % Inhibition: -6%
- Z score: 1.08

Structure (SMILES): O=C([C@H]1CCc2cn[nH]c2C1)N1CCn2c(cc3ccc(Cl)cc32)C1
- % Inhibition: -12%
- Z score: 2.03

Structure (SMILES): CCn1cc(CNC(=O)CCn2nc(C(F)(F)F)c(Cl)c2C)c(C)n1
- % Inhibition: -11%
- Z score: 1.46

Structure (SMILES): O=C(CC1CC2CCC1C2)Nc1cccc(S(=O)(=O)N2CCCC2)c1 (stereo unspecified)
- % Inhibition: -5%
- Z score: 0.61

Structure (SMILES): COc1ccccc1CNC(=O)C1=Nc2ccccc2S(=O)(=O)N1
- % Inhibition: -6%
- Z score: 0.67

Structure (SMILES): Cc1ccc(CN2CC(=O)N3C(c4ccc(C)cc4)c4[nH]c5ccccc5c4C[C@H]3C2=O)cc1 (stereo partly specified)
- % Inhibition: -3%
- Z score: 0.37

Structure (SMILES): NC(=O)c1cc(S(N)(=O)=O)cs1
- % Inhibition: -6%
- Z score: 0.71

Structure (SMILES): COc1cccc(C2C(NC(=O)c3cc[nH]n3)CCN2C2CC2)c1 (stereo unspecified)
- % Inhibition: -11%
- Z score: 2.06

Structure (SMILES): NC1CC2CC(C(=O)Nc3cnc4c(F)cccc4c3)CC12 (stereo unspecified)
- % Inhibition: -6%
- Z score: 1.15

Structure (SMILES): Cc1cc(F)ccc1CS(=O)(=O)N[C@@H](C)c1ccc(Cl)cn1
- % Inhibition: -8%
- Z score: 0.98

Structure (SMILES): O=C(Nc1ccc(-c2ccn[nH]2)cc1)[C@H]1CCCN(Cc2cc(F)ccc2F)C1
- % Inhibition: -1%
- Z score: 0.08

Structure (SMILES): CCN1CCN(C[C@@H]2CN(c3cc(C(C)C)nc(C)n3)C[C@@H]2CO)CC1
- % Inhibition: 9%
- Z score: -1.63

Structure (SMILES): CC(C)c1cc(-c2nc([C@H]3CCOC3)n[nH]2)nc(N)n1
- % Inhibition: -9%
- Z score: 0.97

Structure (SMILES): CCc1ccc(C(=O)NC(C2CC2)C2CC2)o1
- % Inhibition: -7%
- Z score: 0.92

Structure (SMILES): O=C(c1ccc(Cl)cn1)N1CCC[C@H](c2nnn[nH]2)C1
- % Inhibition: -9%
- Z score: 0.89

Structure (SMILES): CCOc1ccc(CNC(=O)[C@H]2CCOC2)cc1Cl
- % Inhibition: -6%
- Z score: 0.56

Structure (SMILES): COc1ccccc1N1CCN(C(=O)C2CC(=O)N(C3CCS(=O)(=O)C3)C2)CC1 (stereo unspecified)
- % Inhibition: 8%
- Z score: -1.14

Structure (SMILES): Cc1csc(NC(=O)Cn2cnc(C(C)C)cc2=O)n1
- % Inhibition: 0%
- Z score: -0.02

Structure (SMILES): COC(=O)c1cccc(-c2noc(C3(C#N)CCCC3)n2)c1
- % Inhibition: 5%
- Z score: -0.49

Structure (SMILES): CCCCOc1ccc([C@@H]2CC(=O)Nc3cc(N4CCNC4=O)ccc32)cc1
- % Inhibition: -9%
- Z score: 1.56

Structure (SMILES): CN1CCC(Oc2ncc(Br)cn2)CC1
- % Inhibition: 0%
- Z score: 0

Structure (SMILES): O=C(Nc1cnc2ccccc2c1)N1CCOCC1
- % Inhibition: 8%
- Z score: -1.48

Structure (SMILES): CCc1nn(C)c(Cl)c1CN1CC(c2ccccn2)C1
- % Inhibition: -12%
- Z score: 1.25

Structure (SMILES): Cc1cccc(CN2CCC(N3CCC[C@H](C(=O)NCc4ccccn4)C3)CC2)c1
- % Inhibition: -16%
- Z score: 2.48

Structure (SMILES): O=c1[nH][nH]c(=O)n1-c1ccc2c(c1)OCO2
- % Inhibition: -14%
- Z score: 2.09

Structure (SMILES): CC(=O)Nc1ccc(CN2CCC[C@H](n3cc(C)cn3)C2)cc1
- % Inhibition: -7%
- Z score: 0.79

Structure (SMILES): CC(C)C(=O)NCCNc1nc(C2CCCCC2)nc2c1cnn2-c1ccccc1Cl
- % Inhibition: -13%
- Z score: 1.33

Structure (SMILES): O=C(Nc1ccn(-c2ncccc2Cl)n1)c1ccc(Cl)cc1Cl
- % Inhibition: -11%
- Z score: 1.11

Structure (SMILES): CC(C)(C)c1nnc(C(=O)NC2C3CN(Cc4ccccc4)CC32)o1 (stereo unspecified)
- % Inhibition: 7%
- Z score: -0.92

Structure (SMILES): CCC(=O)C1CCCN(C(=O)CC2(c3ccc(OC)cc3)CC(=O)N(C3CC3)C2=O)C1 (stereo unspecified)
- % Inhibition: -12%
- Z score: 2.03

Structure (SMILES): COc1ccc(CCC(=O)Nc2ccc3nc(C4CC4)[nH]c3c2)cc1
- % Inhibition (2 µM): -15% and 5%

Structure (SMILES): COc1ccccc1-n1nc(CC(N)=O)nc1COC(C)C
- % Inhibition: -9%
- Z score: 0.87

Structure (SMILES): Cc1cc(C)n(-c2ccc(-c3nc(CN4CCOCC4)no3)cc2)n1
- % Inhibition: 3%
- Z score: -0.63

Structure (SMILES): CC(=O)N1CCn2c(nnc2[C@@H]2CCCN2S(=O)(=O)c2cc(F)ccc2F)C1
- % Inhibition: 33%
- Z score: -0.36

Structure (SMILES): Nc1nccc(N2CCC[C@H](CNC(=O)c3ccoc3)C2)n1
- % Inhibition: 2%
- Z score: -0.39

Structure (SMILES): CS(=O)(=O)CCCN1CC2CCCCC21c1ccccc1 (stereo unspecified)
- % Inhibition: -8%
- Z score: 0.95

Structure (SMILES): CCOC1(C(=O)N2CCc3nc[nH]c(=O)c3C2)CCCC1
- % Inhibition: -5%
- Z score: 0.55

Structure (SMILES): O=C(NCCn1cnnn1)c1csc(C2CCCCC2)c1
- % Inhibition: -10%
- Z score: 1.19

Structure (SMILES): O=C1CC[C@H](C(=O)Nc2ncc(-c3cccc(Cl)c3)s2)N1
- % Inhibition: -9%
- Z score: 1.25

Structure (SMILES): O=C1CN(C(=O)c2[nH]nc(C3CC3)c2Br)CCN1
- % Inhibition: -6%
- Z score: 0.75

Structure (SMILES): COc1ccc(C)c(S(=O)(=O)N[C@@H](C)c2nccs2)c1
- % Inhibition: 0%
- Z score: 0.04

Structure (SMILES): Cc1cc(C)c(O)c(C(=O)N2CCN(C(=O)c3cc(C)no3)CC2)c1
- % Inhibition: -5%
- Z score: 0.77

Structure (SMILES): CC(C)n1nnnc1-c1ccccc1NC(=O)N[C@H]1CCCC[C@@H]1O
- % Inhibition: -12%
- Z score: 1.47

From ChEMBL document CHEMBL4888484, “Replenishing the malaria drug discovery pipeline: Screening and hit evaluation of the MMV Hit Generation Library 1 (HGL1) against asexual blood stage Plasmodium falciparum ,using a nano luciferase reporter read-out” (2022)
